# Assay results as given in PubChem BioAssay AID463173 (ICCB-Longwood Screening Facility, Harvard Medical School, 2010).
# Hit rate of the full screen: of about 52,000 compounds, about 1,700 (3.3%) were called active. No stated cut-off is given here; in the data, active means survival mostly below about 52% (no sharp cut-off); inactive means mostly above about 56%. This is one part of the list.
# Tested on: Wild type
# Assay: growth inhibition of S. aureus wild type versus tarO mutant, primary screen, teichoic acid synthesis inhibitors, RN4220, OD600 (AID 463173)
# Conditions: S. aureus RN4220 wild type/DeltatarO growth, OD600, 18 h, active compounds read low, screened at 18.75 µg/mL (by protocol)
row,SMILES,survival
1,Cc1cc2n(n1)C(c1ccccc1)Nc1ccccc1-2 (configuration not stated),inactive: 123%
2,CCN(CC)S(=O)(=O)c1nnc(NC(=O)COc2ccc(Cl)cc2)s1,inactive: 86%
3,O=C1c2ccccc2CN1c1ccccc1,inactive: 107%
4,CC(=O)Nc1cc(NC(C)=O)cc(-c2nc3ccccc3[nH]2)c1,inactive: 69%
5,CCOC(=O)Cn1cnc2onc(-c3ccc(F)cc3)c2c1=O,inactive: 132%
6,COc1ccc(C(CNC(=O)COc2ccc(Cl)c(C)c2)N2CCOCC2)cc1 (configuration not stated),inactive: 74%
7,Cc1cc(C)cc(NS(=O)(=O)c2ccc3c(c2)NC(=O)C(C)S3)c1 (configuration not stated),active: 12%
8,COc1ccc(CN(C(=O)c2ccco2)c2ccccc2)cc1,inactive: 112%
9,Cc1ccc(NCc2cc(=O)[nH]c3ccccc23)cc1,inactive: 112%
10,CCOC(=O)c1c(C)oc2nc(C)nc(Nc3ccc(CC)cc3)c12,inactive: 115%
11,CCn1c(C(=O)N2CCC(C(=O)NCCc3ccc(OC)cc3OC)CC2)cc2sccc21,inactive: 121%
12,COc1cccc2c1Oc1ncccc1N(C(=O)Nc1ccc(F)c(Cl)c1)C2,inactive: 131%
13,CCOC(=O)C(CC)Sc1ccc2nnc(CCNS(=O)(=O)c3ccc(C)cc3)n2n1 (configuration not stated),inactive: 79%
14,Cc1c(C(=O)NCc2ccccc2Br)oc2c1-c1[nH]ncc1CC2,inactive: 82%
15,CCN1CCN(c2c(S(=O)(=O)c3ccc(OC)cc3)cnc3cc(OC)c(OC)cc23)CC1,inactive: 77%
16,CCc1ccc(S(=O)(=O)c2nnn3c2nc(NC2CCCCCC2)c2sccc23)cc1,inactive: 85%
17,COc1ccc(NC(=O)c2ccc(-c3nc(CSc4ccccc4)c(C)o3)cc2)cc1OC,inactive: 56%
18,COc1ccccc1Cc1nc2ccccc2[nH]c1=O,inactive: 69%
19,Cc1ccc(C)c(CN2C(=O)c3ccccc3S(=O)c3ccc(C(=O)NCc4ccccc4)cc32)c1 (configuration not stated),inactive: 97%

row,SMILES,survival
1,COc1ccc(OC)c(NC(=O)Cn2c(=O)n(Cc3ccccc3)c(=O)c3ccccc32)c1,inactive: 95%
2,O=C(CN1CCCC1)N1c2ccccc2Sc2ccccc21,inactive: 108%
3,CCn1cc(C(=O)N2CCN(c3cccc(Cl)c3)CC2)c(=O)c2cc(S(=O)(=O)N3CCCCC3)ccc21,inactive: 77%
4,COc1cc(OC)cc(C(=O)Nc2ccc3nc(N4CCCCC4)cc(C)c3c2)c1,inactive: 56%
5,COc1ccc(OC)c(NC(=O)N2CCN(S(=O)(=O)c3ccc4c(ccn4C)c3)CC2)c1,inactive: 65%
6,COc1ccc(C(CNC(=O)c2oc3ccc(C)cc3c2C)N2CCOCC2)cc1 (configuration not stated),inactive: 72%
7,CCCn1c(-c2ccc(S(=O)(=O)N3CCOCC3)cc2)csc1=Nc1ccc(OCC)cc1,inactive: 98%
8,CC(C)Cn1c(=O)c2ccccc2n2c(CCC(=O)N3CCN(c4ccccc4F)CC3)nnc12,inactive: 127%
9,COc1ccc(C(=O)C[N+]2=C(C)c3ccc(C)n3CC2)cc1,inactive: 110%
10,COc1ccc(Cl)cc1NC(=O)CN(C(=O)c1ccco1)C1CCCCC1,inactive: 125%
11,CCCSCCCNC(=O)C1CCN(c2nn3cc(-c4ccc(F)cc4)nc3s2)CC1,inactive: 75%
12,O=C(NCc1ccccc1Cl)C(=O)NCC(c1cccs1)S(=O)(=O)c1cccs1 (configuration not stated),inactive: 69%
13,Cc1ccc2nc(-c3ccc(O)cc3)c(Nc3ccc4c(c3)OCCO4)n2c1,inactive: 65%
14,COC(=O)c1ccccc1NC(=O)Cn1c(=O)n(Cc2ccc(C(=O)NCc3ccc4c(c3)OCO4)cc2)c(=O)c2ccccc21,inactive: 86%
15,CCOC(=O)CCc1c(C)nc(SCC(=O)O)c(C#N)c1C,inactive: 98%
16,CCC1CCCCN1CCCNC(=O)c1cc2c(Cl)nc3ccccc3c2s1 (configuration not stated),inactive: 85%
17,Cc1ccc(C)n1-c1nnc(N2CCCC(C(=O)Nc3ccc(C(C)C)cc3)C2)s1 (configuration not stated),inactive: 88%
18,CC(C)(C)OC(=O)N1CC2C(C1)C2NC(=O)c1nsc(Cl)c1Cl (configuration not stated),inactive: 109%
19,Cc1ccc(C)c(N2C(=O)N(Cc3cc(=O)n4ccccc4n3)c3ccccc3S2(=O)=O)c1,inactive: 82%

row,SMILES,survival
1,CCOC(=O)c1c(C)oc2ncnc(Nc3ccc(OCC)cc3)c12,inactive: 72%
2,COc1cccc(C(=O)c2sc3nc(-c4ccccc4)cc(C(F)(F)F)c3c2N)c1,inactive: 38%
3,CCn1c(SCCN2CCCC2)nnc1C1CCCN(C(=O)c2ccc3c(c2)OCO3)C1 (configuration not stated),inactive: 114%
4,Cc1ccc(CNC(=O)c2ccc3c(c2)nc(C)n3-c2cc(C)cc(C)c2)cc1,inactive: 68%
5,O=C(COc1ccccc1F)Nc1ccc(-c2nc3ccccc3s2)cc1,inactive: 90%
6,CCc1cccc(NC(=O)Nc2csc3c2CCCC3)c1,inactive: 134%
7,O=C(CN1C(=O)CCc2cc(S(=O)(=O)N3CCOCC3)ccc21)NCc1ccc(F)cc1,inactive: 78%
8,COc1cc(C)ccc1OCCSc1nc2ccc(NC(=O)c3ccc(F)cc3)cc2s1,inactive: 71%
9,CCCCOc1ccc(C(=O)Nc2ccc(-c3nc4ccccc4s3)cc2C)cc1,inactive: 96%
10,Cn1ccc2cc(S(=O)(=O)N3CCC(C(=O)NCCc4ccccc4)CC3)ccc21,inactive: 72%
11,N#Cc1ccccc1NC(=O)Cn1cnc2onc(-c3cccc(F)c3)c2c1=O,inactive: 105%
12,Cc1ccc(N(CC(=O)NCCc2ccccc2)S(=O)(=O)N(C)C)cc1,inactive: 84%
13,COc1cccc(NC(=O)CNC(=O)Cn2c(C)cc3ccccc3c2=O)c1,inactive: 96%
14,O=C(Nc1cccc(Cl)c1)N1CCC(n2nnc3cc(F)ccc32)CC1,inactive: 107%
15,COc1ccc(Cl)cc1NC(=O)Cn1cc(C(=O)c2ccncc2)c(=O)c2cc(C)ccc21,inactive: 81%
16,Nc1ncc(S(=O)(=O)NCc2ccc(Cl)cc2)cn1,inactive: 57%
17,CC(C)NC(=O)c1ccc(-n2c(-c3ccccc3)cc3c2CCCCC3)cc1,inactive: 114%
18,CCC(Sc1nc2cc(OC)c(OC)cc2c(=O)n1CCc1ccc(Cl)cc1)C(=O)NCCOC (configuration not stated),inactive: 71%
19,Cc1ccc(NC(=O)N(Cc2cn(C)c3ccccc23)C2CCCCC2)cc1C,active: -1%
